{"source": "the BET-seq Pho4 binding data (Le et al. 2018)", "note": "This is one part of the list. Values were computed here from the reads of four pooled replicates and scatter widely."}
{"target": "T1, Pho4 (S. cerevisiae) (UniProt P07270)", "T1 sequence": "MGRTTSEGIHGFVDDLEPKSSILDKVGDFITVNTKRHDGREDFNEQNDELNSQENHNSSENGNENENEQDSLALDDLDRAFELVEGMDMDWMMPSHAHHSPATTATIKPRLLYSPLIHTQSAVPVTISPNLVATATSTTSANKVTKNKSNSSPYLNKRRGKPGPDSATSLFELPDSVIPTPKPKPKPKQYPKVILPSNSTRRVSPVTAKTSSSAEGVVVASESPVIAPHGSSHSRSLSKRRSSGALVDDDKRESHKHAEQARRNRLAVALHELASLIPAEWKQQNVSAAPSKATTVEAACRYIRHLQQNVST", "test": "relative binding free energy (BET-seq); higher = weaker binding", "details": "reference: library average", "units": {"relative binding free energy": "kcal/mol"}}
{"sequence": "AGGGACACGTGGCGTT", "relative binding free energy": -0.03}
{"sequence": "GGACACACGTGAGGGG", "relative binding free energy": 0.14}
{"sequence": "TGGGGCACGTGCAATA", "relative binding free energy": -0.2}
{"sequence": "ATGTACACGTGTGGAC", "relative binding free energy": 0.19}
{"sequence": "TGAGTCACGTGATCGT", "relative binding free energy": 0.09}
{"sequence": "GTTGTCACGTGTGAAT", "relative binding free energy": 0.14}
{"sequence": "TGCTGCACGTGTGCGT", "relative binding free energy": -0.09}
{"sequence": "GGTGGCACGTGTGGTT", "relative binding free energy": 0.08}
{"sequence": "TGTTGCACGTGTGCTT", "relative binding free energy": -0.06}
{"sequence": "AAATGCACGTGTATTG", "relative binding free energy": 0.01}
{"sequence": "TGGGTCACGTGCTTGG", "relative binding free energy": 0.1}
{"sequence": "GGATACACGTGGGCAG", "relative binding free energy": -0.01}
{"sequence": "GCGCTCACGTGTGTGG", "relative binding free energy": 0.04}
{"sequence": "CATATCACGTGTTGTT", "relative binding free energy": 0.24}
{"sequence": "GTCGTCACGTGTGCGG", "relative binding free energy": 0.16}
{"sequence": "GATTGCACGTGGTGAC", "relative binding free energy": 0.15}
{"sequence": "TTATTCACGTGGTGTC", "relative binding free energy": 0.2}
{"sequence": "ATTTTCACGTGTAAGA", "relative binding free energy": 0.24}
{"sequence": "TAAGGCACGTGTACTG", "relative binding free energy": -0.02}
{"sequence": "TTGATCACGTGGCACG", "relative binding free energy": 0.21}
{"sequence": "TTGTTCACGTGGCCTT", "relative binding free energy": 0.15}
{"sequence": "TTTCACACGTGGTGCT", "relative binding free energy": 0.06}
{"sequence": "GTTTCCACGTGTGTAG", "relative binding free energy": 0.03}
{"sequence": "GTATTCACGTGTTTTC", "relative binding free energy": 0.35}
{"sequence": "TGTGTCACGTGGGCCG", "relative binding free energy": -0.09}
{"sequence": "ATTTCCACGTGATTTT", "relative binding free energy": 0.12}
{"sequence": "TAGTGCACGTGATGTT", "relative binding free energy": 0.07}
{"sequence": "TTTGTCACGTGGCTCG", "relative binding free energy": 0.17}
{"sequence": "TTTTCCACGTGGTGTA", "relative binding free energy": -0.07}
{"sequence": "TGTATCACGTGATAAG", "relative binding free energy": 0.2}
{"sequence": "GAATGCACGTGATAGT", "relative binding free energy": 0.1}
{"sequence": "CTTATCACGTGGGGGA", "relative binding free energy": -0.12}
{"sequence": "GATAGCACGTGAGGGG", "relative binding free energy": 0.24}
{"sequence": "CGGTTCACGTGTATTT", "relative binding free energy": 0.29}
{"sequence": "GGGAACACGTGATTGG", "relative binding free energy": 0.18}
{"sequence": "TTTAGCACGTGTGTAC", "relative binding free energy": -0.11}
{"sequence": "TTGTCCACGTGTCTGG", "relative binding free energy": 0.04}
{"sequence": "TTAATCACGTGATTTG", "relative binding free energy": 0.27}
{"sequence": "AAGGGCACGTGAAAAG", "relative binding free energy": 0.18}
{"sequence": "TATAACACGTGTAGGA", "relative binding free energy": 0.08}
{"sequence": "TCAGTCACGTGTGGCG", "relative binding free energy": 0.13}
{"sequence": "GTTGCCACGTGGGACG", "relative binding free energy": -0.13}
{"sequence": "AATCTCACGTGGTTGT", "relative binding free energy": 0.21}
{"sequence": "GTTCACACGTGAAGGT", "relative binding free energy": 0.5}
{"sequence": "GGTATCACGTGGGTTG", "relative binding free energy": -0.02}
{"sequence": "CGGGGCACGTGTTAAT", "relative binding free energy": -0.25}
{"sequence": "AGGGGCACGTGAGATT", "relative binding free energy": 0.22}
{"sequence": "TAGTACACGTGGTATT", "relative binding free energy": -0.08}
{"sequence": "AGATTCACGTGGGAAT", "relative binding free energy": 0.11}
{"sequence": "AGGGACACGTGGATAG", "relative binding free energy": -0.02}
{"sequence": "GGCTGCACGTGTTCTG", "relative binding free energy": 0.06}
{"sequence": "TTGAGCACGTGGAGTG", "relative binding free energy": -0.16}
{"sequence": "GCAGTCACGTGGTGAT", "relative binding free energy": -0.02}
{"sequence": "GTCTTCACGTGGAGTG", "relative binding free energy": 0.33}
{"sequence": "CAGCGCACGTGTTGGG", "relative binding free energy": -0.18}
{"sequence": "GGCGACACGTGAATGG", "relative binding free energy": 0.32}
{"sequence": "GTCCTCACGTGTTTTT", "relative binding free energy": 0.32}
{"sequence": "GTTGCCACGTGGTCGT", "relative binding free energy": -0.2}
{"sequence": "ATGGGCACGTGGAGTT", "relative binding free energy": 0.02}
{"sequence": "GTTGACACGTGTAGGG", "relative binding free energy": 0.08}
{"sequence": "TTTATCACGTGCGGAA", "relative binding free energy": 0.17}
{"sequence": "CCATTCACGTGTTGTG", "relative binding free energy": 0.3}
{"sequence": "TGGTGCACGTGTAACG", "relative binding free energy": -0.03}
{"sequence": "TTGTACACGTGTTTGA", "relative binding free energy": 0.08}
{"sequence": "AGTGACACGTGTATGA", "relative binding free energy": 0.09}
{"sequence": "ATTGGCACGTGTCGGG", "relative binding free energy": -0.13}
{"sequence": "TTGATCACGTGATTGT", "relative binding free energy": 0.31}
{"sequence": "TGGGGCACGTGGATGT", "relative binding free energy": -0.02}
{"sequence": "CTTTACACGTGTTAGT", "relative binding free energy": 0.01}
{"sequence": "CAATTCACGTGAGGGG", "relative binding free energy": 0.38}
{"sequence": "GACTTCACGTGGGGTG", "relative binding free energy": 0.13}
{"sequence": "AGTGGCACGTGGAACG", "relative binding free energy": -0.09}
{"sequence": "GGGCGCACGTGGAATT", "relative binding free energy": 0.02}
{"sequence": "GTGGGCACGTGGGGTG", "relative binding free energy": -0.21}
{"sequence": "TTTGACACGTGCTGGG", "relative binding free energy": -0.02}
{"sequence": "TGTGTCACGTGGGCCT", "relative binding free energy": -0.15}
{"sequence": "TTTGCCACGTGTGTTG", "relative binding free energy": -0.13}
{"sequence": "CGTATCACGTGTTGTT", "relative binding free energy": 0.13}
{"sequence": "TGATACACGTGTGCAT", "relative binding free energy": 0.04}
{"sequence": "TGCTGCACGTGTTCTT", "relative binding free energy": 0.1}
{"sequence": "TAAGACACGTGCTGGG", "relative binding free energy": 0.03}
{"sequence": "TTTTGCACGTGGGGCC", "relative binding free energy": -0.14}
{"sequence": "TAGTACACGTGGGGCT", "relative binding free energy": -0.01}
{"sequence": "GGTTCCACGTGGTTTC", "relative binding free energy": 0.21}
{"sequence": "AATGACACGTGGTATG", "relative binding free energy": -0.04}
{"sequence": "CGTCGCACGTGGTTGT", "relative binding free energy": -0.07}
{"sequence": "TGTCACACGTGCGGCG", "relative binding free energy": 0.21}
{"sequence": "ATTTACACGTGAGGAG", "relative binding free energy": 0.34}
{"sequence": "TTTGCCACGTGGATTG", "relative binding free energy": 0}
{"sequence": "TTCTACACGTGTCGTT", "relative binding free energy": 0.22}
{"sequence": "TATGACACGTGGTGCT", "relative binding free energy": -0.07}
{"sequence": "TGAGTCACGTGTAGGA", "relative binding free energy": 0.1}
{"sequence": "TATGGCACGTGGCAGG", "relative binding free energy": -0.05}
{"sequence": "TTAGACACGTGTTAGA", "relative binding free energy": 0}
{"sequence": "TTTTGCACGTGTGTTA", "relative binding free energy": -0.01}
{"sequence": "TGAGTCACGTGGATTG", "relative binding free energy": 0.17}
{"sequence": "GGGTGCACGTGGGTCG", "relative binding free energy": -0.14}
{"sequence": "AATGTCACGTGGTGTC", "relative binding free energy": 0.03}
{"sequence": "TAGGCCACGTGATGGG", "relative binding free energy": -0.04}
{"sequence": "ATGTTCACGTGTAATT", "relative binding free energy": 0.28}
{"sequence": "TGCAACACGTGTTGTA", "relative binding free energy": -0.06}
{"sequence": "CGGTTCACGTGGTATT", "relative binding free energy": 0.25}
{"sequence": "AAGTTCACGTGTTGAT", "relative binding free energy": 0.24}
{"sequence": "TGGTTCACGTGGGAAT", "relative binding free energy": 0.17}
{"sequence": "TTGGGCACGTGTTCTT", "relative binding free energy": -0.03}
{"sequence": "TGGTTCACGTGTCAGG", "relative binding free energy": 0.44}
{"sequence": "TGGATCACGTGGGATG", "relative binding free energy": 0.14}
{"sequence": "ATGTCCACGTGGGAGG", "relative binding free energy": -0.21}
{"sequence": "TCAAGCACGTGGTGAG", "relative binding free energy": -0.14}
{"sequence": "GAAATCACGTGGATTT", "relative binding free energy": 0.26}
{"sequence": "TTAGTCACGTGATCGT", "relative binding free energy": 0.05}
{"sequence": "TTCTTCACGTGGGTGG", "relative binding free energy": 0.2}
{"sequence": "GAGGGCACGTGTTGAT", "relative binding free energy": -0.04}
{"sequence": "ATATACACGTGGGTCA", "relative binding free energy": -0.13}
{"sequence": "CATGGCACGTGGATTG", "relative binding free energy": 0}
{"sequence": "GGGTGCACGTGGCTTA", "relative binding free energy": 0.04}
{"sequence": "GCTGTCACGTGGAGTT", "relative binding free energy": 0.18}
{"sequence": "TCTTTCACGTGGTCTA", "relative binding free energy": 0.3}
{"sequence": "TGGTGCACGTGTGTTC", "relative binding free energy": 0.03}
{"sequence": "ATGTACACGTGTATGA", "relative binding free energy": 0.12}
{"sequence": "AAATTCACGTGAAGGG", "relative binding free energy": 0.33}
{"sequence": "TTTGGCACGTGACTCT", "relative binding free energy": 0.1}
{"sequence": "AAGTGCACGTGAGAAG", "relative binding free energy": 0.35}
{"sequence": "GGGTTCACGTGTATGT", "relative binding free energy": 0.31}
{"sequence": "AAGATCACGTGGGATT", "relative binding free energy": 0.02}
{"sequence": "GTTACCACGTGTGGGT", "relative binding free energy": 0.03}
{"sequence": "GTTTGCACGTGCGGAA", "relative binding free energy": 0.11}
{"sequence": "TTTGACACGTGTATAT", "relative binding free energy": -0.08}
{"sequence": "TGTTTCACGTGGCATA", "relative binding free energy": -0.02}
{"sequence": "GTTAACACGTGTATAT", "relative binding free energy": 0.11}
{"sequence": "GGTAACACGTGCTTTG", "relative binding free energy": 0.04}
{"sequence": "TTGAGCACGTGAAGAA", "relative binding free energy": 0.4}
{"sequence": "CGGTGCACGTGGGGAC", "relative binding free energy": -0.17}
{"sequence": "ACTATCACGTGGGGTT", "relative binding free energy": -0.01}
{"sequence": "TATATCACGTGTCAGT", "relative binding free energy": 0.06}
{"sequence": "TGTAACACGTGTTATA", "relative binding free energy": -0.09}
{"sequence": "GTCTGCACGTGGGATA", "relative binding free energy": -0.07}
{"sequence": "GAGGACACGTGGTTTG", "relative binding free energy": 0.16}
{"sequence": "AGACGCACGTGGAGGG", "relative binding free energy": -0.13}
{"sequence": "AATTGCACGTGGACTG", "relative binding free energy": -0.02}
{"sequence": "CTGGCCACGTGGTGTG", "relative binding free energy": -0.21}
{"sequence": "TTTTGCACGTGAGGTC", "relative binding free energy": 0.23}
{"sequence": "TTGGCCACGTGGAGTG", "relative binding free energy": 0.04}
{"sequence": "AGGGACACGTGTTGTA", "relative binding free energy": 0.03}
{"sequence": "GAGTGCACGTGATTTA", "relative binding free energy": 0.09}
{"sequence": "TTGACCACGTGTAGTT", "relative binding free energy": 0}
